According to the supplement of paper PMC3334620:
In all, about 33,000 sequences were measured (“E-score (-0.5 to 0.5)”: median about -0.035, highest 2% from about 0.34 on). This is one part of the list.

These sequences were tested against T1, Mot3 (UniProt P54785) (assay: PBM E-score (8-mer binding enrichment) (E-score (-0.5 to 0.5)); higher = stronger / more preferred TF binding; most listed sequences are background and not binding sites). Conditions: protein concentration: 200 nM; construct: GST-full length.
T1 sequence: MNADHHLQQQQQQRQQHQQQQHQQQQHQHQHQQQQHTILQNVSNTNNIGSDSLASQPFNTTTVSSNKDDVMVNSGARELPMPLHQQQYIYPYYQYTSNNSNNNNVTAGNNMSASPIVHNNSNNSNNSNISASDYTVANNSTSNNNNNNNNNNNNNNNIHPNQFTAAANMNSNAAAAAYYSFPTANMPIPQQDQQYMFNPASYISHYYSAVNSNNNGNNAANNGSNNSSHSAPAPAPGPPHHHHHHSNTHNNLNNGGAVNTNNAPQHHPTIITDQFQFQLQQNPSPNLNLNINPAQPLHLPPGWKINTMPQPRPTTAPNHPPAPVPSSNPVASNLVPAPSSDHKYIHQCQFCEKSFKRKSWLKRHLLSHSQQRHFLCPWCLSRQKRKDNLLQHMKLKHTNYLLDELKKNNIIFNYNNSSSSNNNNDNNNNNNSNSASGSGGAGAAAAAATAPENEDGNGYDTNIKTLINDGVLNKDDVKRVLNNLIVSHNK
Experimental: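 Universal 'all 10-mer' protein binding microarrays (Agilent AMADID 015681) probed with GST-tagged S. cerevisiae TFs (full-length or DBD) made by in vitro transcription/translation (PURExpress), about 100-200 nM. Bound TF was detected with fluorescent anti-GST. Each ungapped 8-mer (which stands for itself and its reverse complement) is scored by the PBM enrichment score (E-score), a modified Wilcoxon-Mann-Whitney statistic from -0.5 to +0.5, computed with the Universal PBM Analysis Suite. Scale: above 0.35 generally sequence-specific binding.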

Sequence	PBM E-score
CAGACTTA	0.0452
CCTGACCA	0.028
GCTACAGA	-0.162
CGCGGTAG	-0.00299
ATAACAAC	0.216
ATATTAAC	0.183
GCTCGTTA	0.0557
CCTAACTC	-0.044
CAAACGTC	-0.108
GCATACCC	-0.117
CTCTGCCA	-0.141
CTCGGACA	-0.164
ATTGTCTA	0.224
ATCTGATA	-0.17
GCAATCGC	-0.184
CTAATTGA	0.0597
CCACAATA	-0.0891
AATGGCTC	-0.0767
CGTAGGCA	0.487
CTCGGCCC	-0.261
ACTCACAG	0.012
CTCCGATC	-0.0283

Sequence	PBM E-score
AGGAATAG	0.0238
AATCTCCG	-0.173
TGCCTGAA	0.48
GAGGCATA	-0.154
CATTTCAA	0.111
GCTGGAAA	-0.0822
AGCATTAC	0.225
GAAGGTGA	-0.132
ACTACTGA	-0.0886
GGGATGAA	-0.203
AAAACTTC	0.00572
AGTGCTTC	-0.0636
ACTGCCGG	-0.26
AAAGTATC	0.103
ATAAACCA	-0.0231
ATCGCCTC	-0.178
AGACGTAG	-0.0302
ATGGACGC	-0.131
AGTAACAT	0.263
GGGATCCC	-0.297
CAGTCTCA	-0.0239
ATGCCAGC	-0.18

Sequence	PBM E-score
AGCATGAT	-0.0258
GATCCTCA	-0.027
AGGGCACA	0.3
AAACGATC	-0.0558
CGGCCTCC	-0.122
GAATAGGC	0.19
AGCTGACC	-0.253
CGCGAACG	-0.179
AAGGCCGA	-0.184
ACCTACGC	0.0391
ATTCGAGA	-0.0274
AAGGTATG	0.0554
ACTTGTGA	0.097
AACACAAG	0.262
AGAAAGCA	0.103
TGAAAACA	0.238
ACCCACCC	-0.0653
GGTAGTAC	-0.0492
GACATCAA	-0.0384
CTCCCGCA	-0.145
CTCTCGGC	-0.216
AAGTGGGA	-0.105

Sequence	PBM E-score
AGCTAGCC	-0.214
CCTCAACC	-0.15
ACTCCGTC	-0.118
GCCCGAAC	-0.219
AGTCCCTC	-0.327
GGAAGGAA	0.384
ACCGTACT	-0.102
AATCCTCT	-0.0389
CACTTCAG	-0.13
ACACTTAT	0.05
CTGACCCC	-0.299
ACCGTTGA	-0.257
ATCTATAC	0.0171
CCACTCCC	-0.375
CGGCTTGC	0.131
AACACAGC	0.268
CTCAACAC	0.292
GGTTGGGA	-0.237
CAGGCGGC	-0.0706
CATATCGA	-0.0609
